In the supplement of paper PMC3334620:
Over roughly 33,000 sequences, “E-score (-0.5 to 0.5)” has its median near -0.032; the highest 2% begin near 0.36. The list shows a part of the results.

Biological target: T1, Sko1 (UniProt Q02100)
T1 sequence: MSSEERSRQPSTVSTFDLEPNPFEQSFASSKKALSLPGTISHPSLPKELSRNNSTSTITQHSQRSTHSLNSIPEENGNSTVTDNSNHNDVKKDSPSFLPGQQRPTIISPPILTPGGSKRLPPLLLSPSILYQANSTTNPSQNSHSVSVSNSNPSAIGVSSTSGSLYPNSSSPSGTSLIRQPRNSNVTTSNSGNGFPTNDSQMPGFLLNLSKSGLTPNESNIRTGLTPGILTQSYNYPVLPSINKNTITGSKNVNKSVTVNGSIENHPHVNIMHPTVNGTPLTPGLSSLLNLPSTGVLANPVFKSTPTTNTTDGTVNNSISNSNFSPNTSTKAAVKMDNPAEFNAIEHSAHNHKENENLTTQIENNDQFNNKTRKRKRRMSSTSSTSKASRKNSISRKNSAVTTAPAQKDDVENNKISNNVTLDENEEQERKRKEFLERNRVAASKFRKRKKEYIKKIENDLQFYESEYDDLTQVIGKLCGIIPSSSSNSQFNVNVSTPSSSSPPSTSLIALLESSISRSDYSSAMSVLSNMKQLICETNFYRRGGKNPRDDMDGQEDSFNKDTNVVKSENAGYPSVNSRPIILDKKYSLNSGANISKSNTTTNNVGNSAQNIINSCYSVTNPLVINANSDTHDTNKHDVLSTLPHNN
Assay: PBM E-score (8-mer binding enrichment) (E-score (-0.5 to 0.5)); higher = stronger / more preferred TF binding; most listed sequences are background and not binding sites
Conditions: protein concentration: 200 nM; construct: GST-full length
Summary of the method: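 Using PURExpress in vitro transcription/translation, GST-tagged yeast transcription factors were made in full-length or DNA-binding-domain form. These were applied at about 100-200 nM to double-stranded universal all-10-mer Agilent arrays, and bound protein was detected with fluorescent anti-GST. Scans were normalised with masliner before the Universal PBM Analysis Suite assigned E-scores to ungapped eight-base words pooled with their reverse complements.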

Row | Sequence | PBM E-score
1 | ACCCGCCC | 0.0231
2 | AACTCTGG | -0.133
3 | AATAATCC | 0.126
4 | ACGTCTTG | 0.39
5 | CTATGGAC | -0.0203
6 | TATCCACA | 0.0418
7 | ATTGCTGG | -0.219
8 | AGTTTCCA | -0.0256
9 | GTTCCTCA | -0.0514
10 | AGCAATAG | -0.127
11 | AACATACA | 0.189
12 | ACCGTGCG | 0.0174
13 | CGGCTTAA | 0.0088
14 | AGAGGCTA | -0.236
15 | GTAGGCAA | 0.108
16 | ACGTCGTG | 0.361
17 | GATCTACC | 0.00412
18 | CCCCACAG | -0.0219
19 | AGCATCGC | -0.298
20 | AGCGTATG | -0.0197
21 | GACTCCTA | -0.212
22 | CCCGGGTA | -0.282
23 | AAACGTTG | 0.112
24 | CTTAGAAG | -0.096
25 | AACGACTT | 0.0437

Row | Sequence | PBM E-score
26 | CATTCTAC | 0.138
27 | CAATACTA | -0.0518
28 | CAGTCATG | -0.17
29 | ACATTCTA | 0.293
30 | AACCGTGC | -0.0296
31 | CCAATAGA | 0.0131
32 | CGATACCA | -0.0529
33 | GGGTATAA | -0.141
34 | CGGTAGCC | 0.0295
35 | CTGACTAA | 0.0646
36 | GAAGAATC | -0.116
37 | CTGTATCA | -0.0332
38 | ATTGTTGG | 0.0374
39 | AGTGGGAA | -0.0872
40 | CACTCTGA | -0.102
41 | CAGTTCGA | -0.0737
42 | GACTACCA | 0.011
43 | CCGGGTAA | -0.035
44 | GAGGCTGC | -0.261
45 | CGAGCCCC | -0.269
46 | AGCACTAG | -0.12
47 | CTGATATA | 0.0369
48 | GCAGATAC | 0.0583
49 | GTTCATCA | 0.18
50 | CGATCACC | -0.165

Row | Sequence | PBM E-score
51 | ACGACTCT | 0.0416
52 | CTGCGAAA | 0.00058
53 | AGCTGACT | -0.112
54 | CTGTAGTA | 0.145
55 | CATCTGGA | -0.163
56 | CCGGCGTA | -0.071
57 | GATTTTTA | 0.0461
58 | CCTTCGAG | -0.285
59 | AACGTGCA | 0.191
60 | GATAGCCC | -0.23
61 | ACGCAACT | 0.355
62 | CTTGGATC | -0.116
63 | CGGTGGAA | -0.188
64 | AGGGAAAG | -0.115
65 | GAAGATAA | 0.167
66 | CAAGTCAG | -0.256
67 | AACTTAAG | -0.018
68 | GAACTGCC | -0.29
69 | ATGGAGTC | -0.127
70 | GACCGATA | -0.0548
71 | ATCTGCGA | -0.218
72 | CCCGATCG | 0.00394
73 | ACTGTGGA | -0.205
74 | AGGGAGGA | -0.143
75 | GATCCGCC | -0.163

Row | Sequence | PBM E-score
76 | CGCCTGAC | 0.0438
77 | GTCGAGCA | -0.217
78 | ATTCCCTG | -0.109
79 | GTAGCTAC | 0.245
80 | AATGGTCC | -0.021
81 | CCGCCTAG | -0.249
82 | AGCAGTAG | -0.327
83 | AAGCGCAA | 0.0809
84 | AGACCAGA | -0.116
85 | ATTGCTAA | 0.301
86 | CACATTAG | -0.0351
87 | CGGAACTA | -0.061
88 | GGATATCC | -0.123
89 | AGACGACT | -0.159
90 | GAATATCC | -0.048
91 | CGTTAGAA | 0.124
92 | ACTTCCTA | -0.0848
93 | AGCGCGTC | 0.0596
94 | ACACTAAA | 0.0448
95 | GCAGCACC | -0.29
96 | CTGGGTCC | -0.377
97 | CCATGTCC | -0.0817
98 | GGCCGCAA | -0.283
99 | CGAACGTA | 0.361
100 | AATGTCGT | 0.371

Row | Sequence | PBM E-score
101 | ACGGACCC | -0.248
102 | GCGAACCC | -0.178
103 | AGAAAACT | 0.0824
104 | AGAGACAC | -0.0779
105 | ACGTAAAT | 0.463
106 | AGCCCGGA | -0.394
107 | CATATTGA | 0.237
108 | CAAACGCA | 0.0771
109 | CATTGGAG | -0.0301
110 | CATCTAAC | 0.107
111 | CGGTGCTA | -0.103
112 | GTAACTAA | 0.175
113 | CGGGTGCA | -0.272
114 | CAATGGCC | -0.287
115 | CAGTGGGC | -0.221
116 | GACATCAC | 0.382
117 | CCCCTGCA | -0.246
118 | AATGACTC | 0.121
119 | GACTTGCC | -0.236
120 | AATGACAG | 0.0139
121 | ACAAGAGA | -0.165
122 | CTAGGCAA | -0.172
123 | ATACATTC | 0.0872
124 | CATCACGA | 0.213
125 | CTCTGTCC | -0.138

Row | Sequence | PBM E-score
126 | AACGTGGG | 0.192
127 | CAATGTTC | -0.0771
128 | CCTCTCGA | -0.15
129 | ATGCTCTG | -0.122
130 | AGCATCCG | -0.0661
131 | ACGGCGCC | -0.138
132 | GGATTGTA | -0.0509
133 | ACCTACGT | 0.444
134 | CAACCCTG | -0.0654
135 | CTACGAAG | -0.0419
136 | GGGACTTA | -0.216
137 | GCGCATGA | -0.0645
138 | CATGCACA | 0.154
139 | ATCGCACA | 0.0449
140 | ACATTAAA | 0.226
141 | CCTGTATA | -0.212
142 | CGTACTCC | 0.201
143 | CCTATTTC | 0.0978
144 | ACCCTATC | -0.204
145 | TCTGAGCA | -0.0291
146 | GAGACGTA | 0.394
147 | ATTTGGAG | -0.136
148 | CGACAGGA | -0.0281
149 | AAGCTTAG | 0.107
150 | ACCGATCG | -0.0301

Row | Sequence | PBM E-score
151 | AGTCATAT | 0.196
152 | GTCAGCCA | 0.0567
153 | ACACTACC | -0.0597
154 | TACCTCCA | -0.134
155 | AGTGCTAA | -0.0114
156 | GCGCGGTA | 0.0303
157 | AGGGATTG | -0.0515
158 | CAACAAGC | 0.0492
159 | ATATAGGC | 0.0084
160 | ACCGAAAA | 0.103
161 | GGGTGCTA | -0.196
162 | GGGGCTAA | -0.118
163 | AACCTTAA | 0.0114
164 | AAAGTCTC | -0.209
165 | GCAATTGC | 0.275
166 | TGATTTAA | 0.166
167 | CCACGTGA | 0.339
168 | ACAGCGAG | -0.123
169 | GTGTCACA | 0.165
170 | CCAGGGAA | -0.128
171 | ACGTTACC | 0.297
172 | TGGGTTAA | 0.00424
